Some of the results follow. A value given as a limit tells only on which side of the number the result lay.

First the molecules themselves.
B1: PhoQ; a variant is named by its letters at X, in order, P23837 (parent)
chain: MKKLLRLFFPLSLRVRFLLATAAVVLVLSLAYGMVALIGYSVSFDKTTFRLLRGESNLFYTLAKWENNKLHVELPENIDKQSPTMTLIYDENGQLLWAQRDVPWLMKMIQPDWLKSNGFHEIEADVNDTSLLLSGDHSIQQQLQEVREDDDDAEMTHSVAVNVYPATSRMPKLTIVVVDTIPVELKSSYMVWSWFIYVLSANLLLVIPLLWVAAWWSLRPIEALAKEVRELEEHNRELLNPATTRELTSLVRNLNRLLKSERERYDKYRTTLTDLTHSLKTPLXXLQXXLRSLRSEKMSVSDAEPVMLEQISRISQQIGYYLHRASMRGGTLLSRELHPVAPLLDNLTSALNKVYQRKGVNISLDISPEISFVGEQNDFVEVMGNVLDNACKYCLEFVEISARQTDEHLYIVVEDDGPGIPLSKREVIFDRGQRVDTLRPGQGVGLAVAREITEQYEGKIVAGESMLGGARMEVIFGRQHSAPKDE

The variants in this experiment derive from B1. Briefly: enrichment ratio after two sorts for PhoP signalling (ratio (wild type AVST 3.29)); higher = more functional. To be noted: with PhoP (E. coli).
As for VNNW, the enrichment ratio was at most 0.25.
As for HFNY, the figure is at most 0.25; as for YEQA, at most 0.25; as for WGAC, at most 0.25.
As for IDKA, the figure is at most 0.25; as for FGTW, at most 0.25; as for DEGV, at most 0.25.
As for RYRA, the figure is at most 0.25.
In the case of LFNV, the enrichment ratio was at most 0.25.
As for VKSK, the figure is at most 0.25; as for WPEY, at most 0.25; as for PAVR, at most 0.25.
As for SALC, the figure is 12; as for YSRH, at most 0.25; as for WFQV, at most 0.25.
Consider KVIK, for which the enrichment ratio was at most 0.25.
For SFVL, the enrichment ratio is at most 0.25.
As for RDDI, the figure is at most 0.25; as for IWCF, at most 0.25; as for ISAL, at most 0.25.
As for LEQE, the figure is at most 0.25.
Take HTHG: the enrichment ratio was at most 0.25.
As for AETN, the figure is at most 0.25; as for KHMM, at most 0.25.
As for MSIS, the figure is at most 0.25; as for FYNF, at most 0.25; as for NSKR, at most 0.25.
On to IAEV, for which the enrichment ratio was at most 0.25.
In the case of GYYG, the enrichment ratio was at most 0.25.
On to IYRN, for which the enrichment ratio is at most 0.25.
As for PAQV, the figure is at most 0.25; as for MVDM, at most 0.25.
On to FNWT, for which the enrichment ratio is at most 0.25.
As for APIP, the figure is at most 0.25; as for HSKR, at most 0.25.
Consider MDRF, for which the enrichment ratio is at most 0.25.
As for WQYN, the figure is at most 0.25; as for VDDR, at most 0.25; as for EQAA, at most 0.25.
For TTLL, the enrichment ratio came out at 17.7.
For RDYP, the enrichment ratio was at most 0.25.
YQQS: the enrichment ratio is at most 0.25.
Take LTQS: the enrichment ratio is at most 0.25.
In the case of IPIV, the enrichment ratio is at most 0.25.
As for PLWA, the figure is at most 0.25; as for YNNI, at most 0.25; as for MQAC, 3.98.
As for INCY, the figure is at most 0.25; as for MHEH, at most 0.25; as for SHSE, at most 0.25.
DDWP: the enrichment ratio is at most 0.25.
In the case of HAPN, the enrichment ratio was at most 0.25.
On to VCEI, for which the enrichment ratio was at most 0.25.
For the variant FFGH, the enrichment ratio is at most 0.25.
Take IAFE: the enrichment ratio is at most 0.25.
As for TGMQ, the figure is at most 0.25.
For the variant TLNW, the enrichment ratio is at most 0.25.
Consider AQAM, for which the enrichment ratio came out at 1.45.
For YVFE, the enrichment ratio was at most 0.25.
In the case of VMMN, the enrichment ratio is at most 0.25.
As for PKIT, the figure is at most 0.25; as for AQFN, at most 0.25.
As for WHTC, the figure is at most 0.25; as for FVCQ, at most 0.25.
As for PCPG, the figure is at most 0.25.
Consider YSIP, for which the enrichment ratio was at most 0.25.
On to EVEF, for which the enrichment ratio was at most 0.25.
As for KHHK, the enrichment ratio is at most 0.25.
As for YQNY, the enrichment ratio is at most 0.25.
As for GHNK, the figure is at most 0.25; as for NGIY, at most 0.25; as for KLDD, at most 0.25.
Consider LIAA, for which the enrichment ratio is at most 0.25.
As for PPRD, the figure is at most 0.25; as for HVQR, at most 0.25.
As for MARN, the figure is at most 0.25; as for NNSK, at most 0.25; as for VGGE, at most 0.25.
On to YKCT, for which the enrichment ratio was at most 0.25.
As for KHSQ, the figure is at most 0.25; as for DNWD, at most 0.25.
As for HSWS, the figure is at most 0.25.
As for VFQI, the figure is at most 0.25.
As to NGHV, the enrichment ratio was at most 0.25.
As for ILTK, the figure is at most 0.25; as for TPRR, at most 0.25.
With FDFR, the enrichment ratio is at most 0.25.
GDTA: the enrichment ratio is at most 0.25.
Turning to THCP, the enrichment ratio was at most 0.25.
DVFS: the enrichment ratio is at most 0.25.
As for QVLY, the figure is at most 0.25.
As for YQPS, the figure is at most 0.25; as for TRPV, at most 0.25.
For FCCQ, the enrichment ratio is at most 0.25.
In the case of DLSF, the enrichment ratio is at most 0.25.
As for WPNN, the figure is at most 0.25; as for NHHA, at most 0.25.
As for IFSH, the figure is at most 0.25; as for THLV, 10.5; as for LAEY, at most 0.25.
PFEL: the enrichment ratio was at most 0.25.
As for GQPP, the figure is at most 0.25; as for QDLI, at most 0.25.
With TGCF, the enrichment ratio was determined as 9.56.
As for LYSK, the figure is at most 0.25; as for IVTQ, at most 0.25.
On to ITRM, for which the enrichment ratio is at most 0.25.
ELNN: the enrichment ratio was at most 0.25.
As for RKIM, the figure is at most 0.25.
As for SMKT, the figure is at most 0.25.
As for LSKV, the figure is at most 0.25.
Turning to SKTV, the enrichment ratio was found to be 9.09.
As for QTVR, the figure is at most 0.25.
As for RHNL, the figure is at most 0.25; as for DHVI, at most 0.25; as for DYRY, at most 0.25.
Take EPFV: the enrichment ratio was at most 0.25.
As for GNCV, the figure is 9.3; as for EPCS, at most 0.25; as for KYMR, at most 0.25.
As for ALTD, the figure is at most 0.25.
In the case of HGYN, the enrichment ratio was at most 0.25.
As for FTEG, the figure is at most 0.25; as for HNFE, at most 0.25; as for QSWN, 21.4.
Consider CISI, for which the enrichment ratio was 0.317.
As for MSRN, the enrichment ratio is at most 0.25.
As for KTGF, the figure is at most 0.25.
As for VKEE, the enrichment ratio was at most 0.25.
As for LYGQ, the figure is at most 0.25; as for NNHL, at most 0.25.
As to ISYK, the enrichment ratio was at most 0.25.
As for ANRL, the figure is 0.32; as for NKYI, at most 0.25.
In the case of VNEK, the enrichment ratio was at most 0.25.
As for YYWR, the figure is at most 0.25; as for SVMC, 8.1.
As for KLIH, the figure is at most 0.25; as for PCCI, at most 0.25; as for GGFD, 1.13.
SEKP: the enrichment ratio is at most 0.25.
As for CFYI, the figure is at most 0.25; as for GVCY, 7.53.
As for NFQG, the figure is at most 0.25; as for LMDC, at most 0.25.
In the case of IRKD, the enrichment ratio is at most 0.25.
Consider NNVL, for which the enrichment ratio worked out at 1.25.
As for SWSN, the figure is at most 0.25.
As for KNVR, the figure is at most 0.25; as for RKTY, at most 0.25.
As to NWGT, the enrichment ratio is at most 0.25.
As for YSFH, the figure is at most 0.25.
For MDQR, the enrichment ratio is at most 0.25.

Source of the values: a collection of fitness landscapes (doi:10.1126/science.1257360).
